PubChem BioAssay
Inconclusive results, whose numbers are uncertain, are shown with a selection of clear calls. Activity calls are given as the source filed them.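 Rule for the calls: active = thallium entry rate above the same plate's blocked-transporter control wells by more than 3 SD; inconclusive = the two repeat wells disagree; inactive = the rest.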

Assay: FluoZin2 fluorescence counter-screen of MLSMR hits on KCC2-expressing cells (AID 1714);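 note: raw slope of fluorescence over initial fluorescence between 10 and 20 s after thallium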
Settings: HEK293-KCC2 + bumetanide/ouabain, at 10 µM, stronger effect = higher value
Outline: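 Test system – KCC2-expressing HEK cells · Medium – HBSS-HEPES with ouabain and bumetanide · Reagent – thallium stimulus · Dosing – 10 µM single dose · Times – 48 min dye loading · Technique – kinetic FluoZin2 fluorescence, ex 480/em 540 nm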

Compound | normalized thallium flux
Cc1ccc(CN(C)C(=O)c2cc(COc3ccc(F)cc3Cl)on2)o1 | inactive: 0.00533
Cc1nc(N2CCN(Cc3ccccc3)CC2)nc2c1C(=O)CCC2 | inactive: 0.00422
COc1ccc(CN(C(=O)c2ccc(-c3ccccc3)[nH]2)C(C(=O)NC(C)(C)C)c2ccncc2)cc1 (centres undefined) | inactive: 0.00724
Cc1noc(C)c1CSc1ncnc2sc3c(c12)CCCCC3 | active: 0.165
CCOc1cc(-c2noc(CCCC(N)=O)n2)cc(Br)c1OC | inconclusive: 0.00528
CC1Cc2ccccc2N1C(=O)c1ccc(N2CCCCC2)c([N+](=O)[O-])c1 (centres undefined) | inconclusive: 0.00959
CCOc1ccc(N2C(=O)C3Sc4[nH]c(=O)sc4C(/C=C/c4ccccc4)C3C2=O)cc1 (centres undefined) | inconclusive: 0.00579
O=C(Cn1nc2ccccc2n1)N/N=C/c1cc(Cl)cc([N+](=O)[O-])c1O | inconclusive: 0.00664
CC/C(Cc1ccccc1)=N\NC(=O)c1cc([N+](=O)[O-])cc([N+](=O)[O-])c1 | active: 0.0672
COc1cccc(CNC(=O)CSc2ccc(-c3cccs3)nn2)c1 | inactive: 0.00532
Cc1ccc(S(=O)(=O)N(C)c2ccc(C(=O)N3CCc4ccccc4C3)cc2)cc1 | inactive: 0.00392
Cc1ccc(-c2csc3ncn(CC(=O)N4CCOCC4)c(=O)c23)cc1C | inconclusive: 0.00803
O=S(=O)(NC1CCCC1)c1cccc(S(=O)(=O)N2CCC(n3nnc4ccccc43)CC2)c1 | inactive: 0.00475
CCc1cccc(CC)c1NC(=S)NCCc1c(C)[nH]c2ccccc12 | inconclusive: 0.00426
